# Laboratory results from the supplement of paper PMC12217912.
# Some of the results follow. Sequences were assembled here from the parent chain. Values near 0.05 are background.
# B1: TEV protease; numbered along this chain (parent)
# chain: MGESLFKGPRDYNPISSSICHLTNESDGHTTSLYGIGFGPFIITNKHLFRRNNGTLVVQSLHGVFKVKDTTTLQQHLVDGRDMIIIRMPKDFPPFPQKLKFREPQREERICLVTTNFQTKSMSSMVSDTSCTFPSGDGIFWKHWIQTKDGQCGSPLVSTRDGFIVGIHSASNFTNTNNYFTSVPKNFMELLTNQEAQQWVSGWRLNADSVLWGGHKVFMVKPEEPFQPVKEATQL
# Variants of: B1
# Assay: raw area under fraction-flipped curve 0-4 h after induction (AUC4h, not background-subtracted), DNA-recorder readout of cleavage of the substrate (dimensionless); higher = more cleavage of the substrate by the protease variant
# Settings: temperature: 34 °C; time window: 0-4 h after rhamnose induction
# Method: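 In vivo DNA recorder in E. coli TOP10(DE3) ΔrhaA at 34 °C. Each TEVp single-site mutant (parent TEVp 0) is paired with a single-site variant of the 7-mer TEVs (canonical ENLYFQ|S). The substrate sits between flexible linkers in a Bxb1-sfGFP-TEVs-SsrA fusion, so cleavage stabilises Bxb1 and speeds flipping of a recombination array, read by NGS. The value is the raw area under the fraction-flipped curve over 0-4 h after rhamnose induction (AUC4h), with ≥20 reads per time point. It is not background-subtracted; inactive controls average about 0.047.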
# 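Further: Bxb1 expression induced with 0.2% (w/v) L-rhamnose at OD600 near 0.5, cultures sampled hourly, flipped fraction per protease–substrate barcode pair counted by paired-end Illumina sequencing.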
Variant,area with substrate ENLYFQA,area with substrate ENLYFQF,area with substrate ENLYFQI,area with substrate ENLYFQL,area with substrate ENLYFQM,area with substrate ENLYFQS,area with substrate ENLYFQC,area with substrate ENLYFQD,area with substrate ENLYFQG,area with substrate ENLYFQK,area with substrate ENLYFQN,area with substrate ENLYFQP,area with substrate ENLYFQR,area with substrate ENLYFQT,area with substrate ENLYFQW,area with substrate ENLYFQY,area with substrate ENLYFQE,area with substrate ENLYFQQ,area with substrate ENLYFQV,area with substrate ENLYFQH
MGESLFKGPRDYNPISSSICHLTNESDGHTTSLYGIGFGPFIITNKHLFRRNNGTLVVQSLHGVFKVKDTTTLQQHLVDGRDMIIYRMPKDFPPFPQKLKFREPQREERICLVTTNFQTKSMSSMVSDTSCTFPSGDGIFWKHWIQTKDGQCGSPLVSTRDGFIVGIHSASNFTNTNNYFTSVPKNFMELLTNQEAQQWVSGWRLNADSVLWGGHKVFMVKPEEPFQPVKEATQL [I86Y],0.0604,0.0704,0.0545,0.0557,0.053,0.0617,–,–,–,–,–,–,–,–,–,–,–,–,–,–
MGESLFKGPRDYNPISSSICHLTNESDGHTTSLYGIGFGPFIITNKHLFRRNNGTLVVQSLHGVFKVKDTTTLQQHLVDGRDMIIARMPKDFPPFPQKLKFREPQREERICLVTTNFQTKSMSSMVSDTSCTFPSGDGIFWKHWIQTKDGQCGSPLVSTRDGFIVGIHSASNFTNTNNYFTSVPKNFMELLTNQEAQQWVSGWRLNADSVLWGGHKVFMVKPEEPFQPVKEATQL [I86A],0.067,–,0.06,0.0559,0.0862,0.0685,0.0614,0.0523,0.0632,0.0539,0.0421,0.0376,0.0661,0.0589,0.0536,–,–,–,–,–
MGESLFKGPRDYNPISSSICHLTNESDGHTTSLYGIGFGPFIITNKHLFRRNNGTLVVQSLHGVFKVKDTTTLQQHLVDGRDMIIGRMPKDFPPFPQKLKFREPQREERICLVTTNFQTKSMSSMVSDTSCTFPSGDGIFWKHWIQTKDGQCGSPLVSTRDGFIVGIHSASNFTNTNNYFTSVPKNFMELLTNQEAQQWVSGWRLNADSVLWGGHKVFMVKPEEPFQPVKEATQL [I86G],0.0398,–,–,0.0435,–,0.043,–,–,–,–,–,–,–,–,0.0352,0.0535,–,–,–,–
MGESLFKGPRDYNPISSSICHLTNESDGHTTSLYGIGFGPFIITNKHLFRRNNGTLVVQSLHGVFKVKDTTTLQQHLVDGRDMIIIRMPKDFFPFPQKLKFREPQREERICLVTTNFQTKSMSSMVSDTSCTFPSGDGIFWKHWIQTKDGQCGSPLVSTRDGFIVGIHSASNFTNTNNYFTSVPKNFMELLTNQEAQQWVSGWRLNADSVLWGGHKVFMVKPEEPFQPVKEATQL [P93F],0.0558,–,0.0516,0.0535,0.0984,0.0807,–,0.0781,–,–,–,–,–,0.0836,–,–,0.0599,–,–,–
MGESLFKGPRDYNPISSSICHLTNESDGHTTSLYGIGFGPFIITNKHLFRRNNGTLVVQSLHGVFKVKDTTTLQQHLVDGRDMIIIRMPKDFHPFPQKLKFREPQREERICLVTTNFQTKSMSSMVSDTSCTFPSGDGIFWKHWIQTKDGQCGSPLVSTRDGFIVGIHSASNFTNTNNYFTSVPKNFMELLTNQEAQQWVSGWRLNADSVLWGGHKVFMVKPEEPFQPVKEATQL [P93H],0.0616,–,0.0561,0.0593,–,0.0974,0.114,–,0.0952,0.0388,0.0696,–,0.0543,–,–,0.0833,–,0.0687,0.0551,–
MGESLFKGPRDYNPISSSICHLTNESDGHTTSLYGIGFGPFIITNKHLFRRNNGTLVVQSLHGVFKVKDTTTLQQHLVDGRDMIIIRMPKDFQPFPQKLKFREPQREERICLVTTNFQTKSMSSMVSDTSCTFPSGDGIFWKHWIQTKDGQCGSPLVSTRDGFIVGIHSASNFTNTNNYFTSVPKNFMELLTNQEAQQWVSGWRLNADSVLWGGHKVFMVKPEEPFQPVKEATQL [P93Q],0.0954,0.072,–,0.0709,0.0845,0.102,–,0.0527,0.11,0.063,0.105,–,0.0607,–,0.0645,–,–,–,0.0666,–
MGESLFKGPRDYNPISSSICHLTNESDGHTTSLYGIGFGPFIITNKHLFRRNNGTLVVQSLHGVFKVKDTTTLQQHLVDGRIMIIIRMPKDFPPFPQKLKFREPQREERICLVTTNFQTKSMSSMVSDTSCTFPSGDGIFWKHWIQTKDGQCGSPLVSTRDGFIVGIHSASNFTNTNNYFTSVPKNFMELLTNQEAQQWVSGWRLNADSVLWGGHKVFMVKPEEPFQPVKEATQL [D82I],0.0388,–,–,0.0038,–,0.0489,–,–,0.0461,0.029,0.0255,–,–,–,0.0435,–,–,–,0.0303,–
MGESLFKGPRDYNPISSSICHLTNESDGHTTSLYGIGFGPFIITNKHLFRRNNGTLVVQSLHGVFKVKDTTTLQQHLMDGRDMIIIRMPKDFPPFPQKLKFREPQREERICLVTTNFQTKSMSSMVSDTSCTFPSGDGIFWKHWIQTKDGQCGSPLVSTRDGFIVGIHSASNFTNTNNYFTSVPKNFMELLTNQEAQQWVSGWRLNADSVLWGGHKVFMVKPEEPFQPVKEATQL [V78M],0.105,0.0536,0.0568,0.051,0.0787,0.0988,0.11,0.0764,0.0937,0.0412,0.0891,0.0583,0.0565,0.0601,0.0521,0.0854,0.0576,0.0839,–,0.0752
MGESLFKGPRDYNPISSSICHLTNESDGHTTSLYGIGFGPFIITNKHLFRRNNGTLVVQSLHGVFKVKDTTTLQQHLVDGRDMIIIRMPQDFPPFPQKLKFREPQREERICLVTTNFQTKSMSSMVSDTSCTFPSGDGIFWKHWIQTKDGQCGSPLVSTRDGFIVGIHSASNFTNTNNYFTSVPKNFMELLTNQEAQQWVSGWRLNADSVLWGGHKVFMVKPEEPFQPVKEATQL [K90Q],0.11,0.0882,0.061,0.0533,–,0.104,–,0.0708,0.0831,0.0581,–,–,0.0682,0.0634,0.0727,–,–,–,0.0588,–
MGESLFKGPRDYNPISSSICHLTNESDGHTTSLYGIGFGPFIITNKHLFRRNNGTLVVQSLHGVFKVKDTTTLQQHLVDGRDMIIIRMPKDFPMFPQKLKFREPQREERICLVTTNFQTKSMSSMVSDTSCTFPSGDGIFWKHWIQTKDGQCGSPLVSTRDGFIVGIHSASNFTNTNNYFTSVPKNFMELLTNQEAQQWVSGWRLNADSVLWGGHKVFMVKPEEPFQPVKEATQL [P94M],0.0788,0.0707,0.0648,0.0704,0.0962,0.11,0.134,0.077,0.0996,–,–,–,0.0566,–,0.0562,–,–,–,–,0.0941
